Measurements taken from the supplement of paper PMC10115384.
Numbering of substitutions follows the chain as printed. Human monoclonal antibodies (heavy:light variable regions, translated from the printed DNA). IC50 against SARS-CoV-2 spike pseudoviruses, on VSV particles in 293T-ACE2 cells (24 h) or MLV particles in HeLa-ACE2 cells (72 h); lower = stronger; >1.0 µg/ml as printed. No active / inactive call per row; the paper counts an IC50 of 0.4 µg/ml or less on any variant as neutralizing. Only 98 of the paper's 459 antibodies have neutralization values; the two systems are not on one scale.

B1: ADI-67124 (protein)
chain 1: QVQLQESGPGLVKPSQTLSLTCTVSGGSISSGGYYWTWIRQHPGKGLEWIGYIHYSGNTYYNPSLKSRVSISVDTSKNQFSLQLSSVTAADTAVYYCAREGDFAFFDYWGQGTLVTVSS
chain 2: EIVLTQSPATLSLSPGERATLSCRASQSVRNYLAWYQQKPGQAPRLLIYDASNRATGIPARFSGTGSGTDFTLTISSLEPEDFAVYYCQQRFNWPPLTFGGGTKVEIK
B2: ADI-67998 (protein)
chain 1: QVQLVESGGGVVQPGRSLRLSCAASGFTFSDYAMHWVRQAPGKGLEWVAVISNDGSGKFYADSVKGQFTISRDNSQNTLFLQMNSLRADDTAVYYCAKDTRQDWEPILEYWGQGTLVTVSS
chain 2: DIQMTQSPSSLSASVGDRVTITCRASQSISRYLNWYQQKPGKAPKLLIYAASTLQSGVPSRFTGSGSGTDFTLTISSLQPEDFATYYCQQSYTTLTLTFGGGTKVEIK
B3: ADI-67746 (protein)
chain 1: EVQLVESGGGLVQPGGSLRLSCVASGFTFSTYDMHWVRQTTGKGLEWVSTIGTAGDTYYLESVKGRFTISRENAENSLSLQMNSLRAGDTAVYYCTRGGATYDSGGSQVPFYFYYYMDVWGKGTTVTVSS
chain 2: B2 chain 2 with T22S, R31S, T53N, T63S, S65G, T93S, T94M, L95P, T96E
B4: ADI-67964 (protein)
chain 1: QVTLKESGPVLVKPTETLTLTCTVSGFSLSNVRMSVSWIRQPPGKALEWLAHILSNDEKFYSTSLKSRLTISKDTSKSQVVLTVTNVDPADTGTYYCARLYEGSGRDSNNDAFDFWGQGTMVTVSS
chain 2: DIQMTQSPSSLSTSVGDRVTITCRASQNISNYLNWYQQKPGKAPKLLIYAASSLQSGVPSRFSGTGSGTDFTLTISSLQPEDFGTYYCQQSYSSRTFGQGTKVEIK
B5: ADI-67129 (protein)
chain 1: QVQLVQSGAEVKKPGASVKVSCKASGYTFTDYFFHWVRQTPGQGLEWMGWINPTSGGTKYAQKFQGWVTITRDTSITTAYLELTRLKCDDTAIYYCARDRPLYYRSDYGMDVWGQGTTVTVSS
chain 2: QSALTQPASVSGSPGQSITISCAGTSSDVGAYNYVSWYQQHPGKAPKLMIYDVSTRPSGVSNRFSGSKSGNTASLTISGLQAEDEASYYCSSYTINSTVLFGGGTKLTVL
B6: ADI-67941 (protein)
chain 1: QVQLVESGGGVVQPGRSLRLSCAVSGFTFSTYGMHWVRQAPGKGLEWVALIWYDGSEKKYSDSVKGRFTISRDNSKNTLYLHMNSLRAEDTAVYYCARVYCSRGLCHHEAYYYYAMGVWGQGTTVTVSS
chain 2: QSALTQPASVSGSPGQSITISCTGTSNDVGAYTYVSWYQQHPGKAPKLMIYDVSNRPSGVSNRFSGSKSGNTASLTISGLQAEDEADYYCSSYTSSGTLYVFGTGTKVTVL
B7: ADI-67947 (protein)
chain 1: QVTLKESGPALVKPTQTLTLTCTFSGYSVSTYGMRMSWIRQPPGKALEWLASISWDDDKFYNSSLRTRLTISKDTSKNQVILTMTNMDPVDTATYYCARIGCSTTSCWWYFDVWGRGTLVTVSS
chain 2: QSALTQPRSVSGSPGQSVTISCTGTSSDVGGYDYVSWYQHHPDKAPKIIIYDVTKRPSGVSDRFSGSKSGNTASLTISGLQAEDEADYYCCSYAGGYSVLFGGGTKLTVL
B8: ADI-67230 (protein)
chain 1: QVQLQESGPGLVKPSGTLSLTCAVSGGSISSSNWWSWVRQPPGKGLEWIGEIYHSGSTNYNPSLKSRVTISLDRSKNQFSLKLISVTAADTAVYYCAREGPSLGVGFYYGMDVWGQGTTVTVSS
chain 2: EIVLTQSPGSLSLSPGERATLSCRASQSLTSTYLAWYQQKPGQAPRLLIYGASSRATGIPDRFSGSGSGTDFTLTITRLEPEDFAVYFCQQYGASRTFGQGTKVEIK
B9: ADI-67770 (protein)
chain 1: EVQLVESGGGLVQPGGSLRLSCAASGFTFSSYAMSWVRQAPGKGLEWVSTISASGGSTNYADSVKGRFTISRDISKNTLYLQMNSLRAEDTAVYYCAKASIVVLPAAIFWGKGTTVTVSS
chain 2: EIVMTQSPATLSVSPGERATLSCRASQSVSSNLAWYQQKPGQAPRLLIYGASTRATGIPARFSGSGSGTEFTLTISSLQSEDFAVYYCQQYNNWPRGTFGQGTKVEIK
B10: ADI-67231 (protein)
chain 1: EVQLVESGGGLVQPGGSLRLSCTVSGFTFNSYWMSWVRQAPGKGLEWVANIRHDGSEKYYVDSVKGRFTISRDNAKNSLYLQMNSLRAEDSAVYYCARQSIYHDFRSGVGYSYYYTMDVWGQGTTVTVSS
chain 2: SSELTQDPAVSVALGQTVTITCQGDSLRIYFATWYQQKAGQAPVLVIYGKNNRPSGIPDRFSGSRSGDTASLTITGAQAEDEADYYCSSRDSSGNYFVFGTGTKVTVL
B11: ADI-67471 (protein)
chain 1: QITLKESGPMLVKPTQTLTLTCTFSGFSLSTSGVGVGWIRQPPGKALEWLALIYWDDNKRYSPSLRSRLTITKDTSKNQVVLTMINMDPVDTATYYCAHSPYLTRGYNTYDVGYFFDYWGQGTLVTVSS
chain 2: DIVMTQSPDSLAVSLGERATINCKSSQSVLYSSNNKNFLAWFQQKPGQPPELLIYWASTRESGVPDRFSGSGSGTDFTLTISSLQAEDVAVYYCQQYYSTPPIFGGGTKVEIK
B12: ADI-67657 (protein)
chain 1: EVQLLESGGGLVQPGGSLRLSCAASGFPFSTYAMSWVRQAPGKGLEWVSAIGGSGSDTYYADSVKGRFTISRDNSENTLFLQMNSLRAEDTAVYYCAKDRLRTSSLQPMPFFDYWGQGTLVTVSS
chain 2: B11 chain 2 with F38Y, F42Y, K45Q, E51R, A57T, S71G, T100A, P102Y, I103T, G106Q
B13: ADI-67135 (protein)
chain 1: EVQLVESGGGLVQPGRSLRLSCAAFGFTFEDYTMQWVRQAPGKGLEWVSGISWNSGSTGYAEFVKGRFTISRDNAKNSLYLQMNSLGGEDTAFYYCAKGGEYSSRWYLRESYFDYWGQGTLVTVSS
chain 2: DIVMTQTPLSLSVTPGQPASISCKSSHSLLHSDGKTRLYWYLLKPGQPPQLLIYEVSNRFSGVPDRFSGSGSGTDFTLKISRVEAEDVGVYYCMQSIQVPLTFGGGTKVEIK
B14: ADI-67677 (protein)
chain 1: QVQLVESGGGVVQPGRSLRLSCAAYGFTFSNYGMHWVRQAPGKGLEWVAVISYDGSNNYSADSVKGRFTISRDNSKNMLHLQMNSLRAEDTAVYYCATDYGDYGHYQYYYYMDVWGKGTTVTVSS
chain 2: EIVLTQSPATLSLSPGERATLSCRASQSVGSYLAWYQQKPGQAPSLLIFDAFNRAAGIPARFSGSASGTDFTLTISSLEPEDFAVYYCQQRSTWPLTFGGGTKVEIK
B15: ADI-67890 (protein)
chain 1: QVQLQESGPGLVKPSETLSLTCTVSGGSITSHYWSWIRQPAGKGLEWIGRLYTSGTTNYNPSLKSRITMSVDTSKNQLSLKLSSVTAADTAVYYCARGGGSHRVYDPYYGMDVWGQGTTVTVSS
chain 2: SYELTQPPSVSVSPGQTARITCSGDALPKQYAYWFQQKPGQAPVLVMYKDIGRPSGIPERFSGSSSGTTVTLTISGVQAEDEADYYCQSEDSSGTYVVFGGGTKLTVL
B16: ADI-67485 (protein)
chain 1: QVQLVQSGAEVKKPGSSVKVSCKASGGTFINSAISWVRQAPGQGLEWMGGLVAILGTPNYAQKFQGRVTITADESRSTAYMELSSLRSEDTAVYYCATGVRYCDTTSCRASYFDFWGRGTLVTVSS
chain 2: EIVLTQSPGTLSLSPGERATLSCRTSQSVSSSHLAWYQQKPGQAPRLVIYGASSRATGIPDRFSGSGSGTDFTLTISRLEPEDLAVYYCQQYGSSPLTFGQGTKLEIK
B17: ADI-67731 (protein)
chain 1: EVQLVESGGGLVQPGGSLRLSCAASGFMFNIHNMNWVRQAPGKGLEWVSYISGSSSTMYYADSVKGRFTISRDNAKNSLYLQMNSLRAEDPAVYYCAGSNYYDGNGPDYWGQGTTVTVSS
chain 2: DIQMTQSPSSLSASVGDRVTITCRPSQGIRNDLGWYQQKPGKAPKRLIYAASSLQSGVPSRFSGSGSGTEFTLTISSLQPEDFATYYCLQYNTYPSLTFGGGTKVEIK
B18: ADI-67826 (protein)
chain 1: QVQLVESGGGVVQPGRSLRLSCAASGFTFSDYGMHWVRQAPGKGLEWVTFLWYDGSNKDYADSVKGRFTISRDNSKNTLYLQMNSLRAEDTAVYYCARDPQRAYYYMDVWGKGTTVTVSS
chain 2: QTVVTQEPSFSVSPGGTVTLTCGLSSGPVSTSYYPSWYQQTPGQAPRTLIYSTITRSSGVPDRFSGSILGNKAALTITGAQADDESDYYCVLYMGGGIWVFGTGTKVTVL

target: SARS-CoV-2 Delta spike pseudovirus; experiment: pseudovirus neutralization IC50; higher = weaker neutralization; conditions: system: VSV particle, 293T-ACE2 cells
Experimental: (§1)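 Single-round reporter pseudovirus mixed with dilutions of yeast-made human IgG and put on ACE2-bearing cells; IC50 from the dose curve.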

| Binder | pseudovirus neutralization IC50 |
| --- | --- |
| B1 | > 1 µg/mL |
| B2 | > 1 µg/mL |
| B4 | > 1 µg/mL |
| B5 | > 1 µg/mL |
| B8 | > 1 µg/mL |
| B10 | > 1 µg/mL |
| B11 | > 1 µg/mL |
| B12 | > 1 µg/mL |
| B13 | > 1 µg/mL |
| B14 | > 1 µg/mL |
| B16 | 0.27 µg/mL |

target: SARS-CoV-2 index (Wuhan-Hu-1) spike pseudovirus; experiment: as above; conditions: system: VSV particle, 293T-ACE2 cells
Experimental: as §1

| Binder | pseudovirus neutralization IC50 |
| --- | --- |
| B1 | > 1 µg/mL |
| B3 | > 1 µg/mL |
| B6 | > 1 µg/mL |
| B7 | > 1 µg/mL |
| B8 | > 1 µg/mL |
| B9 | > 1 µg/mL |
| B10 | > 1 µg/mL |
| B11 | 0.431 µg/mL |
| B12 | 0.0007 µg/mL |
| B13 | 0.0025 µg/mL |
| B14 | > 1 µg/mL |
| B15 | > 1 µg/mL |
| B16 | 0.0148 µg/mL |
| B17 | > 1 µg/mL |
| B18 | > 1 µg/mL |

target: SARS-CoV-2 Omicron BA.1 spike pseudovirus; experiment: as above; conditions: system: MLV particle, HeLa-ACE2 cells
Experimental: as §1

| Binder | pseudovirus neutralization IC50 |
| --- | --- |
| B12 | 2.14 µg/mL |
| B16 | 4.21 µg/mL |

target: SARS-CoV-2 index (Wuhan-Hu-1) spike pseudovirus; experiment: as above; conditions: system: MLV particle, HeLa-ACE2 cells
Experimental: as §1

| Binder | pseudovirus neutralization IC50 |
| --- | --- |
| B12 | 0.00269 µg/mL |
| B16 | 0.0222 µg/mL |
